Experimental data reported in PubChem BioAssay AID1508623 (National Center for Advancing Translational Sciences (NCATS), 2021).
Screen size: about 48,000 compounds; about 450 (0.94%) were called active. Roughly 19% stayed inconclusive and do not appear here. Calls come from the whole dose curve; as a rule, active = well fitted inhibition curve with a large enough effect; inconclusive = small, poorly fitted or top-dose-only effect; inactive = no such curve, though single readings can be large or run the other way. Some of the results follow.

Assay: Primary qHTS for Identification of Small Molecule Inhibitors of Huntingtin Promoter Activity; note: nearly all actives have a fitted effect of over 50% in size
Settings: HEK293 HTT promoter firefly luciferase reporter (activity 0% = vehicle and -100% = no light), 24 h; series mostly up to 57.5 µM; activity change, negative = inhibition: at the top concentration
In short: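 HEK293 cells carrying firefly luciferase reporters were seeded at 2,500 per well in Opti-MEM and cultured for 24 h. They were then treated with compounds at up to 57.5 uM final for 24 h at 37 degrees C before Dual-Glo luminescence readout.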

Activity change, negative = inhibition, inactive:
CCOc1ccc(CNC(=O)c2ccc3c(c2)N(Cc2ccccc2)CCS3)cc1 -20.5%, O=C(Cn1ncc2c(Cl)cccc21)NCc1cccc(F)c1 6.71%, CC(=O)Nc1ccc2nc(SCCOc3ccccc3Cl)sc2c1 -11%, CCOC(=O)c1c(C)[nH]c(C)c1S(=O)(=O)N(C)CC(=O)Nc1ccc(C)c(F)c1 -14.2%, CCCCN(c1ccccc1)c1ncnc2c1cnn2-c1cccc(C)c1 0%, COC(=O)c1cc2sccc2n1Cc1nc(-c2ccc(C)cc2)oc1C -37.4%, CCc1ccccc1NC(=O)c1ccc2c(c1)c(C)c(C)n2Cc1ccccc1 -12.3%, CN(C(=O)CSc1nc2ccccc2n1CC(=O)N(C)C1CCCCC1)c1ccc(F)cc1 -17.7%, CCc1ccc(S(=O)(=O)c2cn(Cc3ccc(OC)cc3)c3cc(OC)c(OC)cc3c2=O)cc1 -17.2%, O=C(COc1ccc(Br)cc1)Nc1ccc(C(=O)OC2CCCCC2)cc1 10.8%, CCOc1ccc(NC(=O)Cn2c(=O)n(-c3ccccc3)c(=O)c3c4c(sc32)CCCC4)cc1 -1.11%, CCc1nnc2c3ccccc3nc(N3CCN(c4cc(Cl)ccc4C)CC3)n12 -24.2% [at 11.5 µM], Cc1c(Cl)cccc1NC(=O)Cn1c(=O)n(Cc2ccco2)c(=O)c2oc3ccccc3c21 -4.46%, COC(=O)c1c(Oc2ccc(Br)cc2)nnc(-c2ccccc2)c1-c1ccccc1 -17.4%, CCc1nc2nc(C)cc(Nc3ccc(F)c(Cl)c3)n2n1 -37%, Cc1ccc(CN2CCC(CNC(=O)Nc3cccc(C)c3C)C2)cc1 (stereo unspecified) -2.84%, O=C1CC(c2ccc(Br)cc2)c2c(ccc3ccccc23)N1 (stereo unspecified) 56% [at 11.5 µM], Cc1cccc(C(=O)Nc2ccccc2OCc2cc(=O)n3cc(C)ccc3n2)c1 1.83%, CCN(CC)CCCNc1oc(-c2ccc(OC)cc2)nc1C#N -5.82%, COc1ccccc1-c1c(C)nn2c(N3CCN(c4ccc(F)cc4)CC3)cc(C)nc12 -9.03%, CC(Oc1ccc(O)cc1)(P(=O)(O)O)P(=O)(O)O -2.2%, CC(C)n1c(=O)c2oc3ccccc3c2n(CC(=O)Nc2ccccc2Cl)c1=O 1.73%, COc1ccc(N2CC(NC(=O)c3cccs3)CC2=O)cc1OC (stereo unspecified) -2.89%, O=C(Nc1ccc(F)cc1)c1ccc(-n2cnnc2)cc1 -0.48%, CCc1ccc(-c2[nH]c3c(c2-c2c(-n4cccc4)n(C)c(=O)[nH]c2=O)c(=O)[nH]c(=O)n3C)cc1 -2.23%, O=C(Nc1nnc(S(=O)(=O)N2CCCCC2)s1)c1ccc(Cl)cc1 -12.3%, O=C1NC(=O)C(c2ccccc2[N+](=O)[O-])=C1Nc1ccc(O)c(Cl)c1 -18.3%, CC(=O)Nc1ccc(NS(=O)(=O)c2ccc3c(c2)CCCN3C(C)=O)cc1 -3.52%, COc1ccc(-n2ncc(C(=O)Nc3ccc(C)cc3Cl)c2C2CCN(C(=O)OC(C)(C)C)CC2)cc1 -6.78%, CCN(CC)CCNC(=O)C1CCCN(c2nnc(C)c3c(C)n(-c4ccc(Cl)cc4)nc23)C1 (stereo unspecified) -21.7%, CCOc1ccc(-c2cn3c(n2)sc2cc(C(=O)NCCC4=CCCCC4)ccc23)cc1 -4.19%, CCOc1ccc(NC(=O)CSc2nnc(CC)c(CC)n2)cc1 -21.4%, Cc1cccc(C)c1NC(=O)C1CCCN(S(=O)(=O)c2c(C)noc2/C=C/N(C)C)C1 (stereo unspecified) -10.6%, COc1ccccc1CNC(=O)c1ccc(NC(=O)N2CC(C)Sc3ccccc32)cc1 (stereo unspecified) -27%, COc1ccc(S(=O)(=O)NCC(c2ccco2)S(=O)(=O)c2ccc(C)cc2)cc1C (stereo unspecified) -19.4%, Cc1ccc(-c2noc(-c3cccnc3NCc3ccc(Cl)cc3)n2)cc1 16.5%, Cc1ccc(-c2nc3scc(CCNS(=O)(=O)c4ccc(C)c(C)c4)n3n2)cc1 -28%, Cc1cccc(OCC(=O)Nc2ccc(C(=O)OCc3cc(=O)n4nc(C5CC5)sc4n3)cc2)c1 -9.59%, COC(=O)c1ccc(NC(=O)CSc2ccc(-c3cccs3)nn2)cc1 6.56%, CCc1ccc(NC(=O)C(Cc2ccccc2)NS(=O)(=O)c2ccc3c(c2)CCN3C(C)=O)cc1 (stereo unspecified) -18.8%, Cc1cc(C)c(NC(=O)c2cc(CN3CCOCC3)on2)c(C)c1 -0.0094%, COc1ccc2cc(S(=O)(=O)c3ccccc3F)c(=O)oc2c1 -29.2%, CCCc1ncc(C[n+]2ccccc2C)c(N)n1 7.75%, C#CCOc1ccc(C2C(C(=O)OC)=C(C)NC3=C2C(=O)c2ccccc23)cc1OCC (stereo unspecified) -27.8%, CCOc1ccc(Sc2cc(C(=O)NCCCOC)c3ccccc3n2)cc1 -20.8%, Cc1ccc(C)c(CSc2c(C(C)C)cnc3c2c(=O)n(C)c(=O)n3C)c1 -27.1%, Cc1ccc(NC(=O)Cn2cc(S(=O)(=O)N3CCN(c4ccccc4F)CC3)c3ccccc3c2=O)cc1F -19.9%, Cc1csc2nc(COc3ccc(NC(=O)COc4ccc(F)cc4)cc3)cc(=O)n12 4.9%, CCOc1ccc(/C=C/c2nc(C#N)c(N(C)C)o2)cc1 57.4%, Cc1cc2c(cc1NC(=O)c1ccc(C(C)(C)C)cc1)n(C)c(=O)c(=O)n2C 4.2%, CCOc1ccccc1CNC(=O)c1nn(C)c2c1CS(=O)(=O)c1ccccc1-2 -23.2%, CC(C)c1ccc(CNc2nc(-c3ccco3)nn2S(=O)(=O)c2ccccc2)cc1 -2.55%, COc1ccc(NC(=O)c2sc3nc[nH]c(=O)c3c2C)cc1 80.3%, Cc1ccc(-c2cc(C(=O)Oc3ccccc3)c3cccc(C)c3n2)cc1 -15%, Cc1sc(-c2cc3ccccc3oc2=O)nc1-c1ccc(Cl)cc1 3.6%, COC(=O)c1cc(S(=O)(=O)N2CCN(c3ccc(C)cc3C)CC2)cn1C -5.09%, O=C1CC(c2ccccc2)Cc2[nH]c(=O)c(-c3nc(-c4ccc(F)cc4)cs3)cc21 (stereo unspecified) -27.1%, CC(C)Oc1ccc(CNC(=O)C2COc3ccccc3C2)cc1 (stereo unspecified) 18.6%, O=C(CN1C(=O)COc2ccc(S(=O)(=O)N3CCCC3)cc21)N1CCN(c2ccccc2F)CC1 -8.75%, CCOc1ccc(C2c3c(oc4ccc(C)cc4c3=O)C(=O)N2c2nc(C)c(C)s2)cc1OC (stereo unspecified) 9.65%, COc1ccc(-c2noc(-c3ccc(N4CCCCC4)c([N+](=O)[O-])c3)n2)cc1 -4.78%, CCCCCCOc1ccc(-c2nc3ccc(Br)cc3c(=O)o2)cc1 0.484%, COC(=O)c1ccccc1NC(=O)Nc1cccc(OCc2cc(=O)n3cccc(C)c3n2)c1 14%, CCN1CCN(C(c2cccc(Cl)c2)c2c(O)cc(C)n(CCOC)c2=O)CC1 (stereo unspecified) -15.1%, Cc1ccc(CCNC(=O)CN2C(=O)COc3ccc(S(=O)(=O)N4CCC(C)CC4)cc32)cc1 -26.9%, Cc1cc(OCC(=O)NCC2(N(C)C)CCCCC2)cc(C)c1Cl -5.14%, CCn1cc(C(=O)NCCCN(CC(C)C)CC(C)C)c(=O)c2cc(S(=O)(=O)N3CCc4ccccc4C3)ccc21 -6.52%, COc1ccc(CC(=O)Nc2ccc(-c3nc4ccccc4s3)cc2Cl)cc1 -27%, O=C(NCc1ccccc1)C(=O)NCC(c1ccco1)S(=O)(=O)c1ccccc1 (stereo unspecified) -16.3%, CCc1ccc(NC(=O)N(Cc2c[nH]c3ccccc23)C2CCCCCC2)cc1 38.1%, Cc1cc2nn(-c3ccc(F)cc3)nc2cc1NC(=O)c1cc(Cl)ccc1Cl 13.5%, CCCN(CCC)c1nn2c(=O)c(C(=O)NCc3cccc(OC)c3)cnc2s1 -5.51%, COc1ccc(Cl)cc1NC(=O)CSc1nnc(C)n2c1cc1occc12 -9.36%, CCC1CN(C(=O)NCc2cccc(OC)c2)c2ccccc2O1 (stereo unspecified) -4.01%, COc1ccc(-c2[nH]c(-c3ccccc3)nc2SCC(=O)NC2CCCC2)cc1 -26.3%, COc1ccc(CCNC(=O)c2cc3c(=O)n(C)c4cc(Cl)ccc4c3s2)cc1OC -7.03%, O=S1(=O)c2ccccc2N(Cc2ccccc2Cl)c2ccccc21 -1.84%, COc1cccc(NC(=O)C(=O)NCCc2sc(-c3cccc(C)c3)nc2C)c1 43.2%, Cc1ccc(-c2ccc(=O)n(CC(=O)NC(C)c3ccccc3)n2)cc1 (stereo unspecified) -3.2%, CC(C(=O)O)c1cccc(Oc2ccccc2)c1 (stereo unspecified) -0.955%, Cc1ccccc1NC(=O)Cn1c(=O)n(CCCCC(=O)NCc2ccccc2Cl)c(=O)c2ccccc21 -8.36%, O=C(CN1C(=O)COc2ccc(S(=O)(=O)Nc3ccccc3)cc21)NCc1ccccc1Cl -6.34%, CCOC(=O)c1c(S(=O)(=O)N2CCC(C(=O)Nc3cccc(C#N)c3)CC2)c(C)n(C)c1C -14%, COc1ccc(CCNc2nc(SCc3ccccc3Cl)nc3ccccc23)cc1OC -5.43%, COc1ccc(NC(=O)Cn2c(=O)n(CCc3ccccc3)c(=O)c3sc4ccccc4c32)cc1 14.9%, Cc1cc(C)nc(-n2nc(C)c3c2NC(=O)CC3c2ccccc2OC(C)C)n1 (stereo unspecified) -29.5%, Cc1ccc(C)c(NC(=O)C2CCCN(S(=O)(=O)c3cccc4nsnc34)C2)c1 (stereo unspecified) -23.5%, CCCCC(=O)NC1(C(F)(F)F)C(=O)Nc2c1c(=O)[nH]c(=O)n2-c1ccc(F)cc1 (stereo unspecified) -11.2%, COc1cc(Cl)c(NS(=O)(=O)c2ccc3[nH]c(=O)ccc3c2)c(OC)c1 -18.6%, CCC1CCCCN1C(=O)Cn1c(=O)n(-c2ccccc2C(F)(F)F)c(=O)c2c(C)c(C(=O)N(C)C)sc21 (stereo unspecified) 13.3%, CCOc1ccc(NC(=O)C(CC)n2nc(-c3ccc(C)c(C)c3)ccc2=O)cc1 (stereo unspecified) -26%, COc1ccc(C2CC(=O)c3c([nH]c(C(=O)OC4CCCC4)c3C)C2)cc1OC (stereo unspecified) -19.7%, COc1ccccc1N1CCN(C(c2ccccc2)c2nnc(-c3ccccc3Cl)o2)CC1 (stereo unspecified) -11%, Cc1ccc(NC(=O)Cn2c(=O)n(Cc3nc(-c4ccccc4)no3)c(=O)c3cc4c(cc32)OCO4)cc1C 6.42%, O=C(c1ccc2c(c1)N(Cc1ccccc1F)C(=O)c1ccccc1S2(=O)=O)N1CCCCCC1 -24.2%, CCCNC(=O)c1cc2n(n1)CCCN(Cc1ccc(F)cc1)C2=O -16.9%
